# Measured values published in the supplement of paper PMC8728848.
# Some of the results follow.
# Assays:
# Experiment in all cases: glycan array binding signal (z-score within array); higher = stronger binding
# Conditions in all cases: glycan notation: IUPAC condensed, linker removed; mutation: E41A
# GalNAc(b1-4)GlcNAc = molecular target: GalNAc(b1-4)GlcNAc
# Summary of the method: (§1)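 Columns mapping to the same glycan were averaged after glycan names were converted to IUPAC-condensed notation. The data come from 3228 arrays in the Consortium for Functional Glycomics database, limited to those with an available protein sequence. Binding is reported as a within-array Z-score averaged across arrays of one protein sequence and across linkers.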
# [1] = molecular target: GalNAc(b1-4)GlcNAc(b1-2)Man
# Summary of the method: as §1
# [2] = molecular target: GalNAc(b1-4)GlcNAc(b1-2)Man(a1-3)[GalNAc(b1-4)GlcNAc(b1-2)Man(a1-6)]Man(b1-4)GlcNAc(b1-4)GlcNAc
# Summary of the method: as §1
# [3] = molecular target: GalNAc(b1-4)GlcNAc(b1-3)GalNAc(b1-4)GlcNAc
# Summary of the method: as §1
# GalNAc(b1-4)GlcNAc6S = molecular target: GalNAc(b1-4)GlcNAc6S
# Summary of the method: as §1
# GalNAc(b1-6)GalNAc = molecular target: GalNAc(b1-6)GalNAc
# Summary of the method: as §1
# GalNAc3S(b1-4)GlcNAc = molecular target: GalNAc3S(b1-4)GlcNAc
# Summary of the method: as §1
# GalNAc3S(b1-4)GlcNAc3S = molecular target: GalNAc3S(b1-4)GlcNAc3S
# Summary of the method: as §1
# [4] = molecular target: GalNAc3S(b1-4)[Fuc(a1-3)]GlcNAc
# Summary of the method: as §1
# GalNAc4S6S(b1-4)GlcNAc = molecular target: GalNAc4S6S(b1-4)GlcNAc
# Summary of the method: as §1
# GalNAc6S(b1-4)GlcNAc = molecular target: GalNAc6S(b1-4)GlcNAc
# Summary of the method: as §1
# Glc(a1-4)Glc = molecular target: Glc(a1-4)Glc
# Summary of the method: as §1
# [5] = molecular target: Glc(a1-4)Glc(a1-4)Glc(a1-4)Glc
# Summary of the method: as §1
# Glc(a1-6)Glc(a1-6)Glc = molecular target: Glc(a1-6)Glc(a1-6)Glc
# Summary of the method: as §1
# [6] = molecular target: Glc(a1-6)Glc(a1-6)Glc(a1-6)Glc
# Summary of the method: as §1
# Glc(b1-4)Glc = molecular target: Glc(b1-4)Glc
# Summary of the method: as §1
# Glc(b1-6)Glc = molecular target: Glc(b1-6)Glc
# Summary of the method: as §1
# GlcA(b1-3)Gal = molecular target: GlcA(b1-3)Gal
# Summary of the method: as §1
# GlcA(b1-3)GlcNAc = molecular target: GlcA(b1-3)GlcNAc
# Summary of the method: as §1
# GlcA(b1-6)Gal = molecular target: GlcA(b1-6)Gal
# Summary of the method: as §1
# [7] = molecular target: GlcA3S(b1-3)Gal(b1-4)GlcNAc(b1-2)Man
# Summary of the method: as §1
# [8] = molecular target: GlcA3S(b1-3)Gal(b1-4)GlcNAc(b1-3)Gal(b1-4)Glc
# Summary of the method: as §1
# [9] = molecular target: GlcNAc(a1-3)Gal(b1-4)GlcNAc
# Summary of the method: as §1
# [10] = molecular target: GlcNAc(a1-4)Gal(b1-3)GlcNAc
# Summary of the method: as §1
# [11] = molecular target: GlcNAc(a1-4)Gal(b1-4)GalNAc
# Summary of the method: as §1
# [12] = molecular target: GlcNAc(a1-4)Gal(b1-4)GlcNAc
# Summary of the method: as §1
# [13] = molecular target: GlcNAc(a1-4)Gal(b1-4)GlcNAc(b1-3)Gal(b1-4)Glc
# Summary of the method: as §1
# [14] = molecular target: GlcNAc(a1-4)Gal(b1-4)GlcNAc(b1-3)Gal(b1-4)GlcNAc
# Summary of the method: as §1
# [15] = molecular target: GlcNAc(a1-4)Gal(b1-4)GlcNAc(b1-3)Gal(b1-4)GlcNAc(b1-3)Gal(b1-4)GlcNAc
# Summary of the method: as §1
# [16] = molecular target: GlcNAc(a1-4)Gal(b1-4)GlcNAc(b1-3)Gal(b1-4)[Fuc(a1-3)]GlcNAc(b1-3)Gal(b1-4)[Fuc(a1-3)]GlcNAc
# Summary of the method: as §1
# [17] = molecular target: GlcNAc(a1-6)Gal(b1-4)GlcNAc
# Summary of the method: as §1
# [18] = molecular target: GlcNAc(b1-2)Gal(b1-3)GalNAc
# Summary of the method: as §1
# [19] = molecular target: GlcNAc(b1-2)Man(a1-3)[GlcNAc(b1-2)Man(a1-6)]Man(b1-4)GlcNAc(b1-4)GlcNAc
# Summary of the method: as §1
# [20] = molecular target: GlcNAc(b1-2)Man(a1-3)[GlcNAc(b1-2)Man(a1-6)]Man(b1-4)GlcNAc(b1-4)[Fuc(a1-6)]GlcNAc
# Summary of the method: as §1
# [21] = molecular target: GlcNAc(b1-2)Man(a1-3)[GlcNAc(b1-4)][GlcNAc(b1-2)Man(a1-6)]Man(b1-4)GlcNAc(b1-4)GlcNAc
# Summary of the method: as §1
# [22] = molecular target: GlcNAc(b1-2)Man(a1-3)[GlcNAc(b1-4)][GlcNAc(b1-2)Man(a1-6)]Man(b1-4)GlcNAc(b1-4)[Fuc(a1-6)]GlcNAc
# Summary of the method: as §1
# [23] = molecular target: GlcNAc(b1-2)[GlcNAc(b1-4)]Man(a1-3)[GlcNAc(b1-2)Man(a1-6)]Man(b1-4)GlcNAc(b1-4)GlcNAc
# Summary of the method: as §1
# [24] = molecular target: GlcNAc(b1-2)[GlcNAc(b1-4)]Man(a1-3)[GlcNAc(b1-4)][GlcNAc(b1-2)Man(a1-6)]Man(b1-4)GlcNAc(b1-4)GlcNAc
# Summary of the method: as §1
# [25] = molecular target: GlcNAc(b1-2)[GlcNAc(b1-4)]Man(a1-3)[GlcNAc(b1-4)][GlcNAc(b1-2)[GlcNAc(b1-6)]Man(a1-6)]Man(b1-4)GlcNAc(b1-4)GlcNAc
# Summary of the method: as §1
# [26] = molecular target: GlcNAc(b1-2)[GlcNAc(b1-4)]Man(a1-3)[GlcNAc(b1-4)][GlcNAc(b1-2)[GlcNAc(b1-6)]Man(a1-6)]Man(b1-4)GlcNAc(b1-4)[Fuc(a1-6)]GlcNAc
# Summary of the method: as §1
# [27] = molecular target: GlcNAc(b1-2)[GlcNAc(b1-6)]Man(a1-6)[GlcNAc(b1-2)Man(a1-3)]Man(b1-4)GlcNAc(b1-4)GlcNAc
# Summary of the method: as §1
# [28] = molecular target: GlcNAc(b1-2)[GlcNAc(b1-6)]Man(a1-6)[GlcNAc(b1-2)Man(a1-3)]Man(b1-4)GlcNAc(b1-4)[Fuc(a1-6)]GlcNAc
# Summary of the method: as §1
# [29] = molecular target: GlcNAc(b1-2)[GlcNAc(b1-6)]Man(a1-6)[GlcNAc(b1-4)][GlcNAc(b1-2)Man(a1-3)]Man(b1-4)GlcNAc(b1-4)GlcNAc
# Summary of the method: as §1
# GlcNAc(b1-3)Fuc = molecular target: GlcNAc(b1-3)Fuc
# Summary of the method: as §1
# GlcNAc(b1-3)Gal = molecular target: GlcNAc(b1-3)Gal
# Summary of the method: as §1
binder,measurement,setting,value
CVN-E41G (protein) MHHHHHHENLYFQSGNFSQACYNSAIQGSVLTSTCIRTNGGYNTSSIDLNSVIANVDGSLKWQGSNFIETCRNTQLAGSSELAAECKTRAQQFVSTKINLDDHIAAIDGTLKYE,glycan array binding signal (z-score),GalNAc(b1-4)GlcNAc,-0.163
same,glycan array binding signal (z-score),[1],-0.204
same,glycan array binding signal (z-score),[2],-0.204
same,glycan array binding signal (z-score),[3],-0.186
same,glycan array binding signal (z-score),GalNAc(b1-4)GlcNAc6S,-0.069
same,glycan array binding signal (z-score),GalNAc(b1-6)GalNAc,-0.215
same,glycan array binding signal (z-score),GalNAc3S(b1-4)GlcNAc,-0.228
same,glycan array binding signal (z-score),GalNAc3S(b1-4)GlcNAc3S,-0.242
same,glycan array binding signal (z-score),[4],-0.189
same,glycan array binding signal (z-score),GalNAc4S6S(b1-4)GlcNAc,-0.245
same,glycan array binding signal (z-score),GalNAc6S(b1-4)GlcNAc,-0.231
same,glycan array binding signal (z-score),Glc(a1-4)Glc,-0.186
same,glycan array binding signal (z-score),[5],-0.25
same,glycan array binding signal (z-score),Glc(a1-6)Glc(a1-6)Glc,0.143
same,glycan array binding signal (z-score),[6],-0.116
same,glycan array binding signal (z-score),Glc(b1-4)Glc,-0.16
same,glycan array binding signal (z-score),Glc(b1-6)Glc,-0.095
same,glycan array binding signal (z-score),GlcA(b1-3)Gal,-0.164
same,glycan array binding signal (z-score),GlcA(b1-3)GlcNAc,0.793
same,glycan array binding signal (z-score),GlcA(b1-6)Gal,0.013
same,glycan array binding signal (z-score),[7],-0.205
same,glycan array binding signal (z-score),[8],-0.191
same,glycan array binding signal (z-score),[9],-0.218
same,glycan array binding signal (z-score),[10],-0.204
same,glycan array binding signal (z-score),[11],-0.215
same,glycan array binding signal (z-score),[12],-0.214
same,glycan array binding signal (z-score),[13],-0.219
same,glycan array binding signal (z-score),[14],-0.213
same,glycan array binding signal (z-score),[15],-0.199
same,glycan array binding signal (z-score),[16],-0.122
same,glycan array binding signal (z-score),[17],-0.208
same,glycan array binding signal (z-score),[18],-0.267
same,glycan array binding signal (z-score),[19],-0.23
same,glycan array binding signal (z-score),[20],-0.184
same,glycan array binding signal (z-score),[21],-0.19
same,glycan array binding signal (z-score),[22],-0.195
same,glycan array binding signal (z-score),[23],-0.177
same,glycan array binding signal (z-score),[24],-0.211
same,glycan array binding signal (z-score),[25],-0.201
same,glycan array binding signal (z-score),[26],-0.212
same,glycan array binding signal (z-score),[27],-0.181
same,glycan array binding signal (z-score),[28],-0.182
same,glycan array binding signal (z-score),[29],-0.212
same,glycan array binding signal (z-score),GlcNAc(b1-3)Fuc,-0.189
same,glycan array binding signal (z-score),GlcNAc(b1-3)Gal,-0.223
